Here are results for 195 variants from a collection of fitness landscapes (doi:10.1016/j.celrep.2020.107928).

Over roughly 81,000 sequences, “one-hybrid fitness for binding NBS DNA” has its median near -0.1; the highest 2% begin near 0.36. This is one part of the list.

The labels stand for the following.
B1: Caulobacter ParB omega fusion; a variant is named by its letters at X, in order, B8GW30 (parent)
chain: MESVVVGEPGMSEGRRGLGRGLSALLGEVDAAPAQAPGEQLGGSREAPIEILQRNPDQPRRTFREEDLEDLSNSIREKGVLQPILVRPSPDTAGEYQIVAGERAWRAAQRAGLKTVPIMVRELDDLAVLEIGIIENVQRADLNVLEEALSYKVLMEKFERTQENIAQTIGKSXSHVANXMRLLXLPDEVQSYLVSGELTAXHARAIAAAADPVALAKQIIEGGLSVRETEALARKAPNLSAGKSKGGRPPRVKDTDTQALESDLSSVLGLDVSIDHRGSTGTLTITYATLEQLDDLCNRLTRGI

The assay covers variants of B1. Kind of assay: one-hybrid fitness for binding NBS DNA (the Noc-binding site; scaled: cognate 1, non-cognate 0); higher = stronger binding. To be noted: with NBS DNA site. An outline of the steps:
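Fitness here means the log change in variant-to-wild-type read ratio between plasmids sequenced before and after selection. That scale was set so cognate equals 1 and non-cognate equals 0. The selection was a bacterial one-hybrid screen of Caulobacter ParB libraries, four specificity codons randomised, in E. coli USO carrying a HIS3 reporter with the site 19 bp from the promoter, grown 48 hours at 37°C on M9-minus-histidine with 0.1 mM IPTG and 5 mM 3-AT.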
Regarding LDEC, the “one-hybrid fitness for binding NBS DNA” value is at most 0.2.
To PVEC belongs at most 0.2; to DERP, at most 0.2; to ARYF, at most 0.2.
Then ENRR, with at most 0.2.
Then PRRS, with at most 0.2; and QQPN, with at most 0.2.
On to AMCP, for which the “one-hybrid fitness for binding NBS DNA” value is at most 0.2.
In the case of TDGM, the “one-hybrid fitness for binding NBS DNA” value is at most 0.2.
Take HAHK: the “one-hybrid fitness for binding NBS DNA” value is at most 0.2.
In the case of PYEL, the “one-hybrid fitness for binding NBS DNA” value was at most 0.2.
Then SHMW, with at most 0.2; and TFKY, with at most 0.2.
Take CNRN: the “one-hybrid fitness for binding NBS DNA” value is at most 0.2.
To DHPP belongs at most 0.2.
Then NLAN, with at most 0.2; and SMFV, with at most 0.2; and DVIG, with at most 0.2.
On to GFAT, for which the “one-hybrid fitness for binding NBS DNA” value was at most 0.2.
To ANGI belongs at most 0.2; to DCMM, at most 0.2.
In the case of IRCK, the “one-hybrid fitness for binding NBS DNA” value is at most 0.2.
On to HSNA, for which the “one-hybrid fitness for binding NBS DNA” value was at most 0.2.
Then CTPL, with at most 0.2.
As to PLTP, the “one-hybrid fitness for binding NBS DNA” value is at most 0.2.
For the variant IDHV, the “one-hybrid fitness for binding NBS DNA” value was at most 0.2.
On to CLIV, for which the “one-hybrid fitness for binding NBS DNA” value was at most 0.2.
As to MLFT, the “one-hybrid fitness for binding NBS DNA” value was at most 0.2.
Consider NQAR, for which the “one-hybrid fitness for binding NBS DNA” value is at most 0.2.
To LLMK belongs at most 0.2.
Then TAVF, with at most 0.2; and SPIR, with at most 0.2; and NYPG, with at most 0.2.
Regarding VFMV, the “one-hybrid fitness for binding NBS DNA” value is at most 0.2.
To KRNM belongs at most 0.2; to QDNY, at most 0.2.
Then SPQW, with at most 0.2; and HGAL, with at most 0.2; and TQWT, with at most 0.2.
As for VKVT, the “one-hybrid fitness for binding NBS DNA” value is at most 0.2.
Then IWKN, with at most 0.2; and PGGI, with at most 0.2.
Then HTLF, with at most 0.2; and VGCV, with at most 0.2.
Turning to SKGS, the “one-hybrid fitness for binding NBS DNA” value is at most 0.2.
METI: the “one-hybrid fitness for binding NBS DNA” value is at most 0.2.
To ESLW belongs at most 0.2; to PLPE, at most 0.2.
To TLSV belongs at most 0.2.
To IRGG belongs at most 0.2.
Regarding LSIH, the “one-hybrid fitness for binding NBS DNA” value is at most 0.2.
Then ANLH, with at most 0.2.
Then SCRA, with at most 0.2.
To TGDA belongs at most 0.2; to VEHT, at most 0.2.
As to RGHI, the “one-hybrid fitness for binding NBS DNA” value is at most 0.2.
With NWQM, the “one-hybrid fitness for binding NBS DNA” value was at most 0.2.
Turning to RVAL, the “one-hybrid fitness for binding NBS DNA” value is at most 0.2.
Then PVPD, with at most 0.2; and LWGR, with at most 0.2; and QASH, with at most 0.2.
Regarding CHAT, the “one-hybrid fitness for binding NBS DNA” value was at most 0.2.
Then REGW, with at most 0.2; and SNQE, with at most 0.2; and AWRE, with at most 0.2.
Consider QEAW, for which the “one-hybrid fitness for binding NBS DNA” value is at most 0.2.
On to VMPP, for which the “one-hybrid fitness for binding NBS DNA” value is at most 0.2.
As for ANKW, the “one-hybrid fitness for binding NBS DNA” value is at most 0.2.
Then CLYG, with at most 0.2.
For the variant LTWA, the “one-hybrid fitness for binding NBS DNA” value is at most 0.2.
Consider PHHD, for which the “one-hybrid fitness for binding NBS DNA” value is at most 0.2.
Regarding CLHK, the “one-hybrid fitness for binding NBS DNA” value was at most 0.2.
To HHVV belongs at most 0.2.
To EDWS belongs at most 0.2; to NWEC, at most 0.2.
Then RVWM, with at most 0.2.
For the variant RNTE, the “one-hybrid fitness for binding NBS DNA” value was at most 0.2.
To PDHQ belongs at most 0.2; to AFAA, at most 0.2; to VDLF, at most 0.2.
Then QAKK, with 0.396.
Turning to ASFR, the “one-hybrid fitness for binding NBS DNA” value was at most 0.2.
On to MHWC, for which the “one-hybrid fitness for binding NBS DNA” value is at most 0.2.
To RCAP belongs at most 0.2; to HVSG, at most 0.2; to THRW, at most 0.2.
To EQNI belongs at most 0.2; to MRMG, at most 0.2; to LHTF, at most 0.2.
To IIAS belongs at most 0.2.
For RFCW, the “one-hybrid fitness for binding NBS DNA” value is at most 0.2.
To ILKY belongs at most 0.2.
For VHYS, the “one-hybrid fitness for binding NBS DNA” value is at most 0.2.
Then GPNS, with at most 0.2; and ISWV, with at most 0.2; and TDLP, with at most 0.2.
Turning to RCRY, the “one-hybrid fitness for binding NBS DNA” value turned out to be 0.363.
In the case of QSLP, the “one-hybrid fitness for binding NBS DNA” value was at most 0.2.
Consider TNTV, for which the “one-hybrid fitness for binding NBS DNA” value was at most 0.2.
As to LGGG, the “one-hybrid fitness for binding NBS DNA” value is at most 0.2.
As for VCWR, the “one-hybrid fitness for binding NBS DNA” value was at most 0.2.
For the variant HRSH, the “one-hybrid fitness for binding NBS DNA” value is at most 0.2.
For the variant SQHG, the “one-hybrid fitness for binding NBS DNA” value is at most 0.2.
Consider ISAG, for which the “one-hybrid fitness for binding NBS DNA” value was at most 0.2.
To CPYR belongs at most 0.2; to KAWD, at most 0.2.
As to QAVV, the “one-hybrid fitness for binding NBS DNA” value was at most 0.2.
Then TAQN, with at most 0.2.
Then ICGS, with at most 0.2.
To MSTF belongs at most 0.2; to YHPC, at most 0.2; to DFGR, at most 0.2.
Consider TGMR, for which the “one-hybrid fitness for binding NBS DNA” value was at most 0.2.
As to WVMG, the “one-hybrid fitness for binding NBS DNA” value was at most 0.2.
Then PPLE, with at most 0.2; and DQVR, with at most 0.2.
As for LCNG, the “one-hybrid fitness for binding NBS DNA” value was at most 0.2.
To HNAS belongs at most 0.2.
For FERG, the “one-hybrid fitness for binding NBS DNA” value is at most 0.2.
To AWHG belongs at most 0.2.
Then PWSQ, with at most 0.2; and RKMW, with at most 0.2.
To YVVL belongs at most 0.2.
Consider WDCG, for which the “one-hybrid fitness for binding NBS DNA” value is at most 0.2.
Then HSEY, with at most 0.2.
Regarding FYQR, the “one-hybrid fitness for binding NBS DNA” value was at most 0.2.
In the case of KYMA, the “one-hybrid fitness for binding NBS DNA” value was at most 0.2.
In the case of FART, the “one-hybrid fitness for binding NBS DNA” value was at most 0.2.
In the case of PHKV, the “one-hybrid fitness for binding NBS DNA” value was at most 0.2.
To RILN belongs at most 0.2.
For the variant PRHW, the “one-hybrid fitness for binding NBS DNA” value is at most 0.2.
To VSYW belongs at most 0.2; to PGHL, at most 0.2; to LCFF, at most 0.2.
For the variant KMLY, the “one-hybrid fitness for binding NBS DNA” value is at most 0.2.
Then LRNQ, with at most 0.2.
For CVNK, the “one-hybrid fitness for binding NBS DNA” value is at most 0.2.
To NHKM belongs at most 0.2; to IALF, at most 0.2.
Then CHYY, with at most 0.2.
PSMM: the “one-hybrid fitness for binding NBS DNA” value is at most 0.2.
Take TIFA: the “one-hybrid fitness for binding NBS DNA” value was at most 0.2.
To KTER belongs at most 0.2; to MLAG, at most 0.2; to IMES, at most 0.2.
As to HGRH, the “one-hybrid fitness for binding NBS DNA” value was at most 0.2.
Then LTKS, with at most 0.2.
To AYVE belongs at most 0.2; to CYKR, at most 0.2.
For the variant AQRY, the “one-hybrid fitness for binding NBS DNA” value was at most 0.2.
For the variant KYMT, the “one-hybrid fitness for binding NBS DNA” value is at most 0.2.
Then LMLM, with at most 0.2; and EDHC, with at most 0.2; and PEYQ, with at most 0.2.
Then GYKH, with at most 0.2; and HTYM, with at most 0.2; and NFSM, with at most 0.2.
Consider TIRY, for which the “one-hybrid fitness for binding NBS DNA” value is at most 0.2.
To CEIR belongs at most 0.2; to RNIN, at most 0.2; to TFNG, at most 0.2.
For the variant YSPM, the “one-hybrid fitness for binding NBS DNA” value is at most 0.2.
YVFC: the “one-hybrid fitness for binding NBS DNA” value is at most 0.2.
Then SDYG, with at most 0.2.
To MVMN belongs at most 0.2; to APLD, at most 0.2; to KWYY, at most 0.2.
Then LSKG, with at most 0.2; and HRHG, with at most 0.2; and PCKV, with at most 0.2.
As to ELQC, the “one-hybrid fitness for binding NBS DNA” value was at most 0.2.
For the variant QILI, the “one-hybrid fitness for binding NBS DNA” value was at most 0.2.
To HRER belongs at most 0.2.
To TQPS belongs at most 0.2; to TFCG, at most 0.2; to WMND, at most 0.2.
As to SYWC, the “one-hybrid fitness for binding NBS DNA” value is at most 0.2.
MIKT: the “one-hybrid fitness for binding NBS DNA” value is at most 0.2.
Take TIYR: the “one-hybrid fitness for binding NBS DNA” value was at most 0.2.
Then AKPG, with at most 0.2; and LLNQ, with at most 0.2; and RGSR, with at most 0.2.
Take IMSL: the “one-hybrid fitness for binding NBS DNA” value was at most 0.2.
Then TFPC, with at most 0.2; and QLMF, with at most 0.2; and TKVS, with at most 0.2.
For the variant MPAR, the “one-hybrid fitness for binding NBS DNA” value was at most 0.2.
Then EGDD, with at most 0.2; and SSFV, with at most 0.2; and GPRR, with 0.28.
Consider SHNG, for which the “one-hybrid fitness for binding NBS DNA” value is at most 0.2.
Then HNGW, with at most 0.2; and QQPL, with at most 0.2.
Consider TAGR, for which the “one-hybrid fitness for binding NBS DNA” value was at most 0.2.
Then SCTV, with at most 0.2.
